T1: RBFOX1 RRM (Homo sapiens, UniProt Q9NWB1 109-208)
T1 sequence: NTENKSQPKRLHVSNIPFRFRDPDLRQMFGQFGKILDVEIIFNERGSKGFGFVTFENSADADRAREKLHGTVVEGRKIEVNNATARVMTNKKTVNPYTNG

B1: UGCAUCG (DNA:RNA)
RNA: GGGAGACCGGAAUUCAGAUUGUCCUGCAUCGUUAAAUCCCGUCGUAGCCACCA
DNA 1: CAATCTGAATTCCGGTCTCCC
DNA 2: TGGTGGCTACGACGGGATT
B2: GUUGAUU (DNA:RNA)
RNA: GGGAGACCGGAAUUCAGAUUGUCCGUUGAUUUUAAAUCCCGUCGUAGCCACCA
DNA 1: CAATCTGAATTCCGGTCTCCC
DNA 2: TGGTGGCTACGACGGGATT
B3: ACGCUAC (DNA:RNA)
RNA: B1 RNA with U25A, G26C, C27G, A28C, C30A, G31C
DNA 1: CAATCTGAATTCCGGTCTCCC
DNA 2: TGGTGGCTACGACGGGATT
B4: CCCGGUU (DNA:RNA)
RNA: B2 RNA with G25C, U26C, U27C, A29G
DNA 1: CAATCTGAATTCCGGTCTCCC
DNA 2: TGGTGGCTACGACGGGATT
B5: GCAGGAU (DNA:RNA)
RNA: B2 RNA with U26C, U27A, A29G, U30A
DNA 1: CAATCTGAATTCCGGTCTCCC
DNA 2: TGGTGGCTACGACGGGATT
B6: ACGGCUU (DNA:RNA)
RNA: B2 RNA with G25A, U26C, U27G, A29C
DNA 1: CAATCTGAATTCCGGTCTCCC
DNA 2: TGGTGGCTACGACGGGATT
B7: AGCAGUA (DNA:RNA)
RNA: B1 RNA with U25A, U29G, C30U, G31A
DNA 1: CAATCTGAATTCCGGTCTCCC
DNA 2: TGGTGGCTACGACGGGATT
B8: UAAAACA (DNA:RNA)
RNA: B1 RNA with G26A, C27A, U29A, G31A
DNA 1: CAATCTGAATTCCGGTCTCCC
DNA 2: TGGTGGCTACGACGGGATT
B9: GCCUCUU (DNA:RNA)
RNA: B2 RNA with U26C, U27C, G28U, A29C
DNA 1: CAATCTGAATTCCGGTCTCCC
DNA 2: TGGTGGCTACGACGGGATT
B10: AGGUUUA (DNA:RNA)
RNA: B1 RNA with U25A, C27G, A28U, C30U, G31A
DNA 1: CAATCTGAATTCCGGTCTCCC
DNA 2: TGGTGGCTACGACGGGATT
B11: UUAGCGG (DNA:RNA)
RNA: B2 RNA with G25U, U27A, A29C, U30G, U31G
DNA 1: CAATCTGAATTCCGGTCTCCC
DNA 2: TGGTGGCTACGACGGGATT
B12: CACUGCC (DNA:RNA)
RNA: B1 RNA with U25C, G26A, A28U, U29G, G31C
DNA 1: CAATCTGAATTCCGGTCTCCC
DNA 2: TGGTGGCTACGACGGGATT
B13: UGAAUUC (DNA:RNA)
RNA: B1 RNA with C27A, C30U, G31C
DNA 1: CAATCTGAATTCCGGTCTCCC
DNA 2: TGGTGGCTACGACGGGATT
B14: CAUACUA (DNA:RNA)
RNA: B2 RNA with G25C, U26A, G28A, A29C, U31A
DNA 1: CAATCTGAATTCCGGTCTCCC
DNA 2: TGGTGGCTACGACGGGATT
B15: GUCAUUU (DNA:RNA)
RNA: B2 RNA with U27C, G28A, A29U
DNA 1: CAATCTGAATTCCGGTCTCCC
DNA 2: TGGTGGCTACGACGGGATT
B16: CGCGUAC (DNA:RNA)
RNA: B1 RNA with U25C, A28G, C30A, G31C
DNA 1: CAATCTGAATTCCGGTCTCCC
DNA 2: TGGTGGCTACGACGGGATT
B17: CUAGUGG (DNA:RNA)
RNA: B2 RNA with G25C, U27A, A29U, U30G, U31G
DNA 1: CAATCTGAATTCCGGTCTCCC
DNA 2: TGGTGGCTACGACGGGATT
B18: GUAGAUA (DNA:RNA)
RNA: B2 RNA with U27A, U31A
DNA 1: CAATCTGAATTCCGGTCTCCC
DNA 2: TGGTGGCTACGACGGGATT
B19: UAGACCU (DNA:RNA)
RNA: B1 RNA with G26A, C27G, U29C, G31U
DNA 1: CAATCTGAATTCCGGTCTCCC
DNA 2: TGGTGGCTACGACGGGATT
B20: AGGCAGA (DNA:RNA)
RNA: B2 RNA with G25A, U26G, U27G, G28C, U30G, U31A
DNA 1: CAATCTGAATTCCGGTCTCCC
DNA 2: TGGTGGCTACGACGGGATT

Positions count from the first letter of the chain named. The list shows a part of the results.

The target of this test is T1, RBFOX1 RRM. As to the kind of experiment: EMSA; HiTS-Eq, 1 nM pool, 10 min; buffer printed only for the single-RNA assays: 10 mM Tris pH 7.5, 150 mM NaCl, 3.4 mM EDTA, 0.001% NP-40, 30 C. Conditions: tags: His6 N-terminal (pET28a); label: 5' 32P. The gist of the method: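 Relative association constants, normalised to the cognate motif, were derived by comparing read counts of each RNA species with those of the control reaction. The RNA sequenced was the free fraction, separated by 8% native PAGE after a 10 min equilibration in 50 µL of 1 nM 5′-radiolabelled RNA (7 randomized nucleotides) with increasing concentrations of purified wild-type or mutant RbFox RRM.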
As for B1, the binding signal was 0.0295 KA relative to UGCAUGU. As for B2, the figure is 0.0225 KA relative to UGCAUGU.

As to B3, the binding signal was 0.00671 KA relative to UGCAUGU. The result for B4 reads 0.00756 KA relative to UGCAUGU; that for B5, 0.011 KA relative to UGCAUGU.

Turning to B6, the binding signal was 0.0099 KA relative to UGCAUGU. The result for B7 reads 0.00564 KA relative to UGCAUGU; that for B8, 0.00245 KA relative to UGCAUGU. For the molecule B9, the binding signal was 0.0112 KA relative to UGCAUGU. The result for B10 reads 0.00548 KA relative to UGCAUGU; that for B11, 0.00858 KA relative to UGCAUGU; that for B12, 0.00554 KA relative to UGCAUGU. The result for B13 reads 0.008 KA relative to UGCAUGU; that for B14, 0.000261 KA relative to UGCAUGU. As for B15, the binding signal is 0.00547 KA relative to UGCAUGU. The result for B16 reads 0.00803 KA relative to UGCAUGU. The result for B17 reads 0.00266 KA relative to UGCAUGU; that for B18, 0.00757 KA relative to UGCAUGU.

B19: the binding signal was 0.00333 KA relative to UGCAUGU. The result for B20 reads 0.00971 KA relative to UGCAUGU.

Values taken from publication PMC9911399, “Two distinct binding modes provide the RNA-binding protein RbFox with extraordinary sequence specificity”.
